# Measurements as given in ChEMBL document CHEMBL4888484, “Replenishing the malaria drug discovery pipeline: Screening and hit evaluation of the MMV Hit Generation Library 1 (HGL1) against asexual blood stage Plasmodium falciparum ,using a nano luciferase reporter read-out” (2022).
# The whole screen tested about 150,000 compounds, of which about 540 (0.36%) showed an effect of 50% or more. This is one part of the list.
# System: Plasmodium falciparum
# Experiment: Primary screen in NF54 nanoGlo assay, in single point, at 2uM, 72h; a lower Z score goes with more inhibition
# Assay type: functional, Erythrocyte
# Conditions: timepoint 72 hour
SMILES,% Inhibition,Z score
C[C@H](O)CCn1ccnc1-c1cccc(-c2ccco2)c1,0%,0.05
NC(=O)CN1CCCN(c2ccc3nnc(C(F)(F)F)n3n2)CC1,3%,-0.52
Cc1ccc([C@H]2c3ccccc3CCN2C(=O)c2ccc(-c3cccc(Cl)c3)s2)cc1,1%,-0.15
CC(C)=CCN1CC2(CCN(c3cnccn3)CC2)CC1=O,-10%,1.21
Cc1nscc1C(=O)Nc1ccnc(C(N)=O)c1,-2%,0.16
CC(C)CN1CCNC(=O)[C@@H]1CC(=O)NCCOC(C)C,-5%,0.57
O=C(NCC(c1cccs1)n1cccn1)C1CCOC1 (stereo not given),8%,-1.15
Cc1oncc1CNC(=O)c1ccno1,0%,-0.04
OCC(O)C1OC(Nc2ccc(Br)cc2)C(O)C1O (stereo not given),-11%,1.49
C[C@@H](CN1CCN(C)CC1)OC(=O)COc1ccc(C(C)(C)C)cc1,-8%,1.07
O=C(O)C[C@@H]1CN(C(=O)CCc2ccccc2F)C[C@@H]1c1c[nH]nn1,-16%,1.76
C[C@@H](C1CC1)N(C(=O)Cn1cnc2cc(F)c(F)cc2c1=O)C1CC1,4%,-0.44
Cc1cc(C(=O)N2CC(Cn3c(C)cnc3-c3ccccc3)C2)n(C)n1,-10%,1.25
Nc1nc(NCCO)cc(-c2ccc(-c3ccn[nH]3)cc2)n1,10%,-1.62
CCC(=O)Nc1nc(COC)ns1,9%,-1.1
CCOc1ccc(NC(=O)Cn2nc3c(N4CCOCC4)nc4ccccc4n3c2=O)cc1,-3%,0.42
CC1(N2CCOCC2)CN(c2ncc(Br)cn2)C1,6%,-0.61
CNC(=O)C[C@H](C)N(C)Cc1ccnc(C(C)C)n1,-2%,0.37
COc1cc(=O)n(-c2ccccc2)nc1C(=O)N1CCN(C(c2ccccc2)c2ccccc2)CC1,-11%,1.12
Cc1cc2c(cc1CN1CCN3C(=O)OC[C@H]3C1)OCO2,-10%,1.81
FC(F)(F)c1cccc(N2CC(c3ccncc3)C2)n1,-9%,1.18
O=C(NC[C@H](CC1CC1)C(=O)O)c1ccc2sccc2c1,-5%,0.6

SMILES,% Inhibition,Z score
Cc1cc(C)cc(NC(=O)c2c(C)sc3ncnc(N4CCCC4)c23)c1,-2%,0.31
N#Cc1nc2c(S(=O)(=O)c3ccccc3)c(N)n(Cc3ccc(F)cc3)c2nc1C#N,-19%,3.03
Cc1cc(C(=O)N2CCOCC2)ccc1NCc1nccn1C,-9%,1.15
CCc1ccc(-c2n[nH]c(=O)c3c2CCCC3)cc1S(=O)(=O)N1CCCCCC1,-7%,0.83
CN(C)c1nc(N[C@H]2CCS(=O)(=O)C2)ncc1F,-3%,0.33
CN(Cc1nncn1C)C(=O)CCCc1cn[nH]c1,-9%,1.28
CCn1ccc(C(=O)N[C@@H](C)c2nc(C(C)C)no2)cc1=O,1%,-0.13
Cc1sc(C(=O)O)cc1S(=O)(=O)N1CCN(c2cc(C3CC3)n[nH]2)CC1,-15%,1.88
CC(C)n1nccc1C(=O)N1CCOC[C@H]1c1ncn(CC(F)(F)F)n1,-9%,1.08
Cc1cc(NC(=O)COc2ccccc2)nn1-c1ccc(Cl)cc1,-3%,0.32
O=C(CCC1CCCC1)Nc1cccc(C(=O)O)c1,-3%,0.63
CCN(C)c1ccccc1NCc1cccnc1C,-4%,0.38
Cc1ccc(S(=O)(=O)N2c3ccccc3N(C(=O)c3ccccc3)[C@@H]2c2ccc(N(C)C)cc2)cc1,30%,-3.35
CCc1cc(C(=O)NCc2cn(C)nc2C)c2c(C3CC3)nn(-c3ccc(F)cc3)c2n1,36%,-4.89
c1ccc2c(O[C@H]3CCOC3)nccc2c1,-3%,0.57
O=C(CCn1cncn1)N1CCCCCCC1,-2%,0.23
O=S(=O)(c1ccccc1)N1CC(n2cnnc2[C@@H]2CCCO2)C1,-4%,0.61
Cc1ccc2nc(C(=O)Nc3ccc(OC(F)(F)F)cc3)cc(N3CCCCC3)c2c1,-11%,1.35
CCCNC(=O)N(CCN1CCOCC1)CC(=O)N1N=C(c2cccc(OC)c2)C[C@H]1c1ccc2c(c1)OCO2,-14%,2.23
Cc1ccc(S(=O)(=O)NC[C@H]2CC(=O)N(Cc3ccc(F)cc3)C2)c(C)c1,-12%,1.4
CCOC1CC(CO)(NC(=O)Cc2c(C)nn(C)c2C)C1(C)C (stereo not given),-8%,1
O=S1(=O)CC2Nc3ccccc3NC2C1 (stereo not given),-9%,1.14

SMILES,% Inhibition,Z score
O=C(O)CNc1ccccc1C(=O)NC[C@@H]1C[C@@H]2C=C[C@@H]1C21CC1,6%,-0.89
Cc1n[nH]c(C)c1S(=O)(=O)N1CCCN(C(=O)COc2ccccc2)CC1,-6%,1.17
O=C(c1ccoc1)N1CCC[C@H](c2nnc3n2CCN(C2CCCC2)C3)C1,-7%,1.4
CC(=O)Nc1ccc(Oc2ccc(-c3noc(-c4cccc(NC(C)=O)c4C)n3)cc2)cc1,-6%,0.99
OC1(CN2CCc3ccccc3C2)CCCC1,-19%,3.54
Cc1cccc(-n2nc(CC(N)=O)nc2[C@H]2CCOC2)n1,-1%,0.14
CN1C[C@@H]2CN(C(=O)c3cc(O)c4ccccc4c3)C[C@@H]2C1,36%,-3.68
CC(C)c1nc(CC(=O)N2CCC[C@H]2c2ccncc2)cs1,0%,-0.04
C[C@@H](Cc1nc(-c2nccn2C)cs1)n1cc(Cl)cn1,-2%,0.26
COc1ccc(-c2cc(C(F)F)nc(N(C)Cc3c(C)nn(C)c3C)n2)cc1OC,28%,-3.15
Cc1cccn2cc(C(=O)N[C@H](c3cnn(C)c3)C(F)(F)F)cc12,5%,-0.85
CN1CCN(C(=O)c2cc(O)ccn2)Cc2cccnc21,4%,-0.69
COc1cccc(CN2CCC[C@@](O)(CNC3Cc4ccccc4C3)C2=O)c1,-19%,1.66
CN(Cc1cc(C#N)cs1)C(=O)c1ccn(CC(F)F)n1,-6%,0.96
Cc1noc(C)c1CN(C)C1CC(OC(C)(C)C)C1 (stereo not given),-5%,0.66
OCc1ccc(NCc2nccn2C2CC2)nc1,1%,-0.13
CC1(C)C[C@H](CNC(=O)c2cc3n(n2)CCCC3=O)C(C)(C)O1,-11%,2.12
CCOC(=O)Cc1c(C)nc2ncnn2c1N1CC[C@H]2CCCC[C@@H]2C1,-9%,1.25
Cn1c(N2CCc3sccc3C2)c(C#N)c(=O)n(C)c1=O,7%,-0.88
CCOc1ccc(S(=O)(=O)N(C)Cc2ccccc2)cc1-c1nc(C)no1,0%,0.04
CCCNS(=O)(=O)c1ccc(-c2cc(C(F)(F)F)on2)o1,-11%,1.91
COc1ccc(OC)c(CNC(=O)CCc2nnc3c4cc(-c5cc(C)ccc5C)nn4ccn23)c1,-5%,0.77

SMILES,% Inhibition,Z score
COc1ccc([C@H](CO)N(C)Cc2cn(C)c(=O)n(C)c2=O)cc1,-8%,1.07
Cc1cc(C)c2c(c1)C(=O)[C@H](c1cc(O)c3ccccc3n1)C2=O,-12%,1.92
CN(c1nc2c(c(N3CCOCC3)n1)CN(C(=O)Cc1ccccc1)CC2)C1CCCCC1,-5%,0.75
O=C(O)C1CN(C(=O)NC(CCc2ccccc2)C(F)(F)F)CCO1 (stereo not given),-14%,1.53
CC(C)OCc1cc(C(=O)N2CC[C@H](N)C(C)(C)C2)ccc1F,-11%,1.24
c1cncc(CN2CCc3[nH]cnc3[C@H]2c2cnc(-c3ccco3)nc2)c1,-2%,0.39
COc1ccccc1CCN(C)c1cnccn1,-5%,0.74
CCc1ccccc1OC(C(=O)N1CCCC2(CNC(=O)C2)C1)c1ccccc1 (stereo not given),-3%,0.33
Cc1ccc(C#N)c(NCCCc2nnc3ccccn23)n1,-10%,1.21
Cc1nc[nH]c1CN(C)Cc1nc(CC(C)C)no1,-15%,2.98
Cc1ccnc(NCCNc2cc([C@H]3C[C@@H](O)C3)nc(N)n2)c1,-5%,0.79
COc1ccc(C)cc1NC(=O)N(C)Cc1nc2cc(C(=O)NC(C)C)ccc2n1C,-5%,0.56
O=C(c1ccccc1F)N(Cc1ccc2c(c1)OCO2)Cc1c(-c2ccccc2)noc1N1CCCC1,1%,-0.08
CC[C@H](NC1CC=CC1)c1ccccc1O,-11%,1.6
Cc1ccc(N2CCC(C(=O)N3CCN(c4ccc(F)c(Cl)c4)CC3)CC2)nn1,-7%,1.26
C#CCCC1(CCC(=O)N2CC[C@@]3(C2)C(=O)Nc2ccccc23)N=N1,-2%,0.21
O=C(N[C@H]1CCCc2ccccc21)c1cc(OCc2ccccc2)ncn1,-1%,0.19
Cc1noc(C)c1C(C)(C)NC(=O)CCn1ccnn1,29%,-3.32
Cc1[nH]nc(O)c1C(c1ccccc1)c1c(O)n[nH]c1C,-5%,0.59
